# Laboratory results reported in the supplement of paper PMC8728848.
# The other results are listed elsewhere or left out.
# B1: Nictaba (Nicotiana tabacum), Q94EW1 (protein)
# chain: MQGQWIAARDLSITWVDNPQYWTWKTVDPNIEVAELRRVAWLDIYGKIETKNLIRKTSYAVYLVFKLTDNPRELERATASLRFVNEVAEGAGIEGTTVFISKKKKLPGELGRFPHLRSDGWLEIKLGEFFNNLGEDGEVEMRLMEINDKTWKSGIIVKGFDIRPN
# What was measured:
# Experiment in all cases: glycan array binding signal (z-score within array); higher = stronger binding
# Details in all cases: glycan notation: IUPAC condensed, linker removed
# [1] = molecular target: Fuc(a1-3)[GalNAc(b1-4)]Gal(b1-4)GlcNAc
# In short: (§1)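 Columns mapping to the same glycan were averaged after glycan names were converted to IUPAC-condensed notation. The data come from 3228 arrays in the Consortium for Functional Glycomics database, limited to those with an available protein sequence. Binding is reported as a within-array Z-score averaged across arrays of one protein sequence and across linkers.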
# [2] = molecular target: Fuc(a1-3)[GalNAc(b1-4)]GlcNAc
# In short: as §1
# [3] = molecular target: Fuc(a1-3)[GalNAc(b1-4)]GlcNAc6S
# In short: as §1
# [4] = molecular target: Fuc(a1-4)GlcNAc
# In short: as §1
# [5] = molecular target: Fuc(b1-3)GlcNAc
# In short: as §1
# [6] = molecular target: Gal(a1-2)Gal
# In short: as §1
# [7] = molecular target: Gal(a1-3)Gal
# In short: as §1
# [8] = molecular target: Gal(a1-3)Gal(b1-3)Glc
# In short: as §1
# [9] = molecular target: Gal(a1-3)Gal(b1-3)GlcNAc
# In short: as §1
# [10] = molecular target: Gal(a1-3)Gal(b1-3)GlcNAc(b1-2)Man
# In short: as §1
# [11] = molecular target: Gal(a1-3)Gal(b1-3)GlcNAc(b1-2)Man(a1-3)[Gal(a1-3)Gal(b1-3)GlcNAc(b1-2)Man(a1-6)]Man(b1-4)GlcNAc(b1-4)GlcNAc
# In short: as §1
# [12] = molecular target: Gal(a1-3)Gal(b1-3)GlcNAc(b1-3)GalNAc
# In short: as §1
# [13] = molecular target: Gal(a1-3)Gal(b1-3)GlcNAc(b1-6)GalNAc
# In short: as §1
# [14] = molecular target: Gal(a1-3)Gal(b1-3)[Fuc(a1-4)]GlcNAc(b1-2)Man(a1-3)[Gal(a1-3)Gal(b1-3)[Fuc(a1-4)]GlcNAc(b1-2)Man(a1-6)]Man(b1-4)GlcNAc(b1-4)GlcNAc
# In short: as §1
# [15] = molecular target: Gal(a1-3)Gal(b1-4)Glc
# In short: as §1
# [16] = molecular target: Gal(a1-3)Gal(b1-4)GlcNAc
# In short: as §1
# [17] = molecular target: Gal(a1-3)Gal(b1-4)GlcNAc(b1-2)Man
# In short: as §1
# [18] = molecular target: Gal(a1-3)Gal(b1-4)GlcNAc(b1-2)Man(a1-3)[Gal(a1-3)Gal(b1-4)GlcNAc(b1-2)Man(a1-6)]Man(b1-4)GlcNAc(b1-4)GlcNAc
# In short: as §1
# [19] = molecular target: Gal(a1-3)Gal(b1-4)GlcNAc(b1-3)GalNAc
# In short: as §1
# [20] = molecular target: Gal(a1-3)Gal(b1-4)GlcNAc(b1-6)GalNAc
# In short: as §1
# [21] = molecular target: Gal(a1-3)Gal(b1-4)[Fuc(a1-3)]GalNAc
# In short: as §1
# [22] = molecular target: Gal(a1-3)Gal(b1-4)[Fuc(a1-3)]GlcNAc
# In short: as §1
# [23] = molecular target: Gal(a1-3)Gal(b1-4)[Fuc(a1-3)]GlcNAc(b1-2)Man(a1-3)[Gal(a1-3)Gal(b1-4)[Fuc(a1-3)]GlcNAc(b1-2)Man(a1-6)]Man(b1-4)GlcNAc(b1-4)GlcNAc
# In short: as §1
# [24] = molecular target: Gal(a1-3)GalNAc
# In short: as §1
# [25] = molecular target: Gal(a1-3)GlcNAc
# In short: as §1
# [26] = molecular target: Gal(a1-3)[Gal(a1-4)]Gal(b1-4)GlcNAc
# In short: as §1
# [27] = molecular target: Gal(a1-4)Gal(b1-3)GlcNAc(b1-2)Man(a1-3)[Gal(a1-4)Gal(b1-3)GlcNAc(b1-2)Man(a1-6)]Man(b1-4)GlcNAc(b1-4)GlcNAc
# In short: as §1
# [28] = molecular target: Gal(a1-4)Gal(b1-4)Gal
# In short: as §1
# [29] = molecular target: Gal(a1-4)Gal(b1-4)GalNAc
# In short: as §1
# [30] = molecular target: Gal(a1-4)Gal(b1-4)Glc
# In short: as §1
# [31] = molecular target: Gal(a1-4)Gal(b1-4)GlcNAc
# In short: as §1
# [32] = molecular target: Gal(a1-4)Gal(b1-4)GlcNAc(b1-2)Man(a1-3)[Gal(a1-4)Gal(b1-4)GlcNAc(b1-2)Man(a1-6)]Man(b1-4)GlcNAc(b1-4)GlcNAc
# In short: as §1
# [33] = molecular target: Gal(a1-4)Gal(b1-4)GlcNAc(b1-3)Gal(b1-4)Glc
# In short: as §1
# [34] = molecular target: Gal(a1-4)GlcNAc
# In short: as §1
# [35] = molecular target: Gal(a1-6)Glc
# In short: as §1
# [36] = molecular target: Gal(b1-2)Gal
# In short: as §1
# [37] = molecular target: Gal(b1-3)Gal
# In short: as §1
# [38] = molecular target: Gal(b1-3)Gal(b1-4)GlcNAc
# In short: as §1
# [39] = molecular target: Gal(b1-3)Gal(b1-4)GlcNAc(b1-2)Man(a1-3)[Gal(b1-3)Gal(b1-4)GlcNAc(b1-2)Man(a1-6)]Man(b1-4)GlcNAc(b1-4)GlcNAc
# In short: as §1
# [40] = molecular target: Gal(b1-3)GalNAc
# In short: as §1
# [41] = molecular target: Gal(b1-3)GalNAc(a1-3)[Fuc(a1-2)]Gal(b1-4)Glc
# In short: as §1
# [42] = molecular target: Gal(b1-3)GalNAc(a1-3)[Fuc(a1-2)]Gal(b1-4)GlcNAc
# In short: as §1
# [43] = molecular target: Gal(b1-3)GalNAc(b1-3)Gal
# In short: as §1
# [44] = molecular target: Gal(b1-3)GalNAc(b1-3)Gal(a1-4)Gal(b1-4)Glc
# In short: as §1
# [45] = molecular target: Gal(b1-3)GalNAc(b1-3)Gal(b1-4)Glc
# In short: as §1
binder,measurement,setting,value
B1,glycan array binding signal (z-score),[1],-0.318
same,glycan array binding signal (z-score),[2],-0.302
same,glycan array binding signal (z-score),[3],-0.39
same,glycan array binding signal (z-score),[4],-0.318
same,glycan array binding signal (z-score),[5],-0.303
same,glycan array binding signal (z-score),[6],-0.289
same,glycan array binding signal (z-score),[7],-0.285
same,glycan array binding signal (z-score),[8],-0.27
same,glycan array binding signal (z-score),[9],-0.268
same,glycan array binding signal (z-score),[10],-0.388
same,glycan array binding signal (z-score),[11],-0.148
same,glycan array binding signal (z-score),[12],-0.24
same,glycan array binding signal (z-score),[13],-0.388
same,glycan array binding signal (z-score),[14],-0.111
same,glycan array binding signal (z-score),[15],-0.323
same,glycan array binding signal (z-score),[16],-0.166
same,glycan array binding signal (z-score),[17],-0.388
same,glycan array binding signal (z-score),[18],3.45
same,glycan array binding signal (z-score),[19],-0.272
same,glycan array binding signal (z-score),[20],-0.304
same,glycan array binding signal (z-score),[21],-0.329
same,glycan array binding signal (z-score),[22],-0.305
same,glycan array binding signal (z-score),[23],2.69
same,glycan array binding signal (z-score),[24],-0.277
same,glycan array binding signal (z-score),[25],-0.371
same,glycan array binding signal (z-score),[26],-0.146
same,glycan array binding signal (z-score),[27],0.812
same,glycan array binding signal (z-score),[28],-0.29
same,glycan array binding signal (z-score),[29],-0.123
same,glycan array binding signal (z-score),[30],-0.274
same,glycan array binding signal (z-score),[31],-0.315
same,glycan array binding signal (z-score),[32],1.69
same,glycan array binding signal (z-score),[33],-0.26
same,glycan array binding signal (z-score),[34],-0.267
same,glycan array binding signal (z-score),[35],-0.27
same,glycan array binding signal (z-score),[36],-0.291
same,glycan array binding signal (z-score),[37],-0.334
same,glycan array binding signal (z-score),[38],-0.321
same,glycan array binding signal (z-score),[39],2.31
same,glycan array binding signal (z-score),[40],-0.309
same,glycan array binding signal (z-score),[41],-0.285
same,glycan array binding signal (z-score),[42],-0.297
same,glycan array binding signal (z-score),[43],-0.387
same,glycan array binding signal (z-score),[44],-0.284
same,glycan array binding signal (z-score),[45],-0.329
